The record followed here is publication PMC3893891 (Journal of biomolecular screening, 2012).

What is called IC50 is the point on the concentration scale where inhibition reaches its midpoint.

Structures are written as SMILES. Like-named read-outs stand apart in the source and are kept apart here.

The target of this experiment is T1, Eya2 ED (Homo sapiens, UniProt O00167).
T1 sequence (O00167 253-538): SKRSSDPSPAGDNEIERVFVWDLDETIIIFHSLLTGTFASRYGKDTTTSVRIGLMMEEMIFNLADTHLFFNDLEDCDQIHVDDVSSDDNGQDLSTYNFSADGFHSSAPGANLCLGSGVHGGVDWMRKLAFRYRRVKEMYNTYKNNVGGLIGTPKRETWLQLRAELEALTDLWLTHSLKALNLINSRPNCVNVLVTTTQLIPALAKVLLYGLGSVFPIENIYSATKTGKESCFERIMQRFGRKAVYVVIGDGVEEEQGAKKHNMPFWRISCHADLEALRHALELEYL
As to conditions: OMFP substrate; for IC50: read-out: IC50, inhibition of Eya2 ED phosphatase activity.

Take `c1cnc2c(c1)ccc1cccnc12` [1,10-phenanthroline]: the “inhibition of Eya2 ED phosphatase activity (in words)” value was “do not show inhibition”.

In the case of `O=C(O)CN(CCOCCOCCN(CC(=O)O)CC(=O)O)CC(=O)O` [EGTA], the IC50 stood at 65 µM.

Turning to `N[C@@H](Cc1ccccc1)C(=O)O` [L-phenylalanine], the “inhibition of Eya2 ED phosphatase activity (in words)” value is given as “do not show inhibition”.

With `[Na+].[Na+].[Na+].[O]=[V]([O-])([O-])[O-]` [Na3VO4], the IC50 (common phosphatase inhibitors) was 1800 µM.

On to `[F-].[Na+]` [NaF], for which the IC50 (common phosphatase inhibitors) was 6600 µM.
